Legend:
[1] = tested on: tau aggregation in hippocampus of P301S mice; experiment: In vivo neutralization of tau aggregate propagation in P301S mice (PG-5 immunoreactivity); design: species or system mouse; settings: for Mean % PG-5 immunoreactivity: 7.5 μg antibody injected with homogenate, four weeks post-injection, ± SEM
Method: Homogenate preps of brain stem tissue from 4.5 to 5 month old P301S mice are prepared substantially the same as described above.
Normal 10 week old female P301S mice are injected in the left hemisphere of the hippocampus with 5 μl homogenate brain prep and either: 7.5 μg exemplified anti-Tau antibody (having both HCs of SEQ ID NO.2 and both LCs of SEQ ID NO.1) (N=12); or 7.5 μg of control human IgG4 antibody (N=11). Four weeks post-injection, the mice are sacrificed and the left and right hemispheres are collected, paraffin embedded, and 6 μm serial sections are mounted on glass slides. Slides containing bregma (A−P=−2.30) are de-paraffinized, embedded tissue is rehydrated, and antigen retrieval is performed by heating slide to 100° C. for 20 min. in citrate buffer. Slides are cooled in dH2O and incubated at room temperature according to the following steps: (a) 10 min. in (0.03%) H2O2; (b) 30 min. in a 1:20 dilution of normal goat serum; (c) 60 min. in a 1:8000 dilution of PG-5 antibody (diluted in PBST)(PG-5 antibody obtained from the lab of Dr. Peter Davies, Albert Einstein College of Medicine of Yeshiva University; PG-5 antibody specifically binds serine at residue 409 of tau when phosphorylated, residue numbering based on the exemplified human tau of SEQ ID NO.13); (d) 30 min. in a 1:200 dilution of biotinylated goat anti-mouse IgG antibody (diluted in PBST); (e) 30 min. in avidin-biotin complex solution; and (f) 5 min. in 3,3′-diaminobenzidine. PBST is used for washing between the respective steps. Following the 5 min. incubation in 3,3′-diaminobenzidine, sections are counterstained with haematoxylin, then rehydrated and cover-slipped. Staining signal is measured by Scanscope AT Slide Scanner (Aperio) at 20× magnification. PG-5 immunoreactivity is quantified and expressed as a percentage using the positive pixel algorithm of Imagescope Software (v. 11.1.2.780, Aperio).

[2] = molecular target: human monomeric (e.g., native or non-aggregate) tau (Homo sapiens, UniProt P10636); experiment: SPR (BIACORE) binding to human monomeric tau; settings: 25° C.
Chain of human monomeric (e.g., native or non-aggregate) tau (P10636 1-441 isoform P10636-8): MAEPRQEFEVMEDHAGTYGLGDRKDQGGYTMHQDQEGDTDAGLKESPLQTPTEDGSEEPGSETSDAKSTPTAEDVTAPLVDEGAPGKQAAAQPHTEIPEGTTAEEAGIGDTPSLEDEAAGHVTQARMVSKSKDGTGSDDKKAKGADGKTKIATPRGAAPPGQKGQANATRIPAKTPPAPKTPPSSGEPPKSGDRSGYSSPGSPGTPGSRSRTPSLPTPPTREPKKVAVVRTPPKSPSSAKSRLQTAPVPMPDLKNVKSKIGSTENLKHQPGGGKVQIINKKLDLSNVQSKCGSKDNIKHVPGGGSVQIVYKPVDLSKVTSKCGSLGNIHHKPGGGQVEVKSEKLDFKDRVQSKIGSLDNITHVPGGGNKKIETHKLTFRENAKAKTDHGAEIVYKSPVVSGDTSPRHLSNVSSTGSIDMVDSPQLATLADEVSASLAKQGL
Method: (§1) Surface Plasmon Resonance (SPR) assay, measured with a BIACORE® 2000 instrument (primed with HBS-EP+ running buffer (GE Healthcare, 10 mM Hepes pH7.4+150 mM NaCl+3 mM EDTA+0.05% surfactant P20) at 25° C.), is used to measure binding of an exemplified anti-Tau antibody (having both HCs of SEQ ID NO.2 and both LCs of SEQ ID NO.1) to both human monomeric (e.g., native or non-aggregate) tau and human tau aggregates (both having the amino acid sequence as set forth in SEQ ID NO.13).
(§2) Except as noted, all reagents and materials are from BIACORE® AB (Upsala, Sweden). A CMS chip containing immobilized protein A (generated using standard NHS-EDC amine coupling) on all four flow cells (FC) is used to employ a capture methodology. Antibody samples are prepared at 0.5 μg/mL by dilution into running buffer. […]
(§3) Data of binding to tau aggregate is processed using standard double-referencing and fit to a 1:1 binding model using Biacore 2000 Evaluation software, version 4.1, to determine the association rate (kon, M^−1s^−1 units), dissociation rate (koff, s^−1 units), and Rmax (RU units). The equilibrium dissociation constant (KD) was calculated from the relationship KD=koff/kon, and is in molar units. Data of binding to monomeric tau cannot be determined accurately by SPR as described above due to rapid on- and off-rates. […]

human tau aggregates = human tau aggregates (Homo sapiens, UniProt P10636); experiment: SPR (BIACORE) binding to human tau aggregates; settings: Tau Aggregate; 1:1 binding model, 25° C.
Chain of human tau aggregates (P10636 1-441 isoform P10636-8): as above
Method: as §1, §2, §3

[3] = tested on: brain sections from wild type mouse that possess no human tau (background non-specific staining); experiment: Ex vivo target engagement: immunohistochemistry staining of control wild type mouse brain sections; assay type: binding; design: key: severe, +++; moderate, ++; mild, +; negative, −; settings: WT control (murine) brain section
Method: (§4) Binding of exemplified anti-Tau antibody (having both HCs of SEQ ID NO.2 and both LCs of SEQ ID NO.1) to aggregated tau derived from human brains is determined through immunohistochemistry staining of formalin-fixed paraffin-embedded (FFPE) brain sections obtained from: a “normal” individual (displaying minimal tau aggregation); an AD patient (displaying severe tau aggregation and NFT formation pathology); a PD patient (displaying severe tau aggregation).
FFPE sections are de-paraffinized and rehydrated. Thereafter, antigen retrieval (using the Lab Vision PT module system, Thermo Scientific) is performed on the sections which includes heating sections in citrate buffer (Thermo Scientific, p/n. TA-250-PM1X) for 20 minutes at 100° C. then cooling the sections in dH2O. […]

[4] = tested on: aggregated tau in FFPE brain sections; experiment: Ex vivo target engagement: immunohistochemistry staining of human FFPE brain sections; assay type: binding; design: key: severe, +++; moderate, ++; mild, +; negative, −
Method: as §4
FFPE sections are de-paraffinized and rehydrated. Thereafter, antigen retrieval (using the Lab Vision PT module system, Thermo Scientific) is performed on the sections which includes heating sections in citrate buffer (Thermo Scientific, p/n. TA-250-PM1X) for 20 minutes at 100° C. then cooling the sections in dH2O. Sections are then exposed to the following seven incubation steps (at room temp.): (1) 10 min. in 0.03% H2O2; (2) 30 min. in 1:20 dilution of normal goat serum (Vector Labs., p/n. S-1000) diluted in PBST; (3) 60 min. in exemplified anti-Tau antibody (normalized to 1 mg/ml, then diluted in PBST to a dilution of 1:4000 before incubation with sections); (4) 30 min. in rabbit anti-human IgG4 (raised against the Fc region of the exemplified antibody) at a concentration of 1.1 μg/ml in PBST; (5) 30 min. in 1:200 dilution of biotinylated goat anti-rabbit IgG (Vector Labs., p/n. BA-1000) diluted in PBST: (6) 30 min. in avidin-biotin complex solution (Vector Labs., p/n. PK-7100); (7) 5 min. in 3,3′-diaminobenzidine (Vector Labs., p/n. SK-4105). Sections are washed between each of the above 7 steps using PBST. Following the seven incubation steps above, sections are counterstained with haematoxylin, dehydrated and cover-slipped. For mouse “control” tissue sections the above protocol is modified in incubation step (3) by using a 1:8000 dilution (as opposed to a 1:4000 dilution) of exemplified anti-Tau antibody; and by replacing incubation steps (4) and (5) with a single 30 min. 1:200 dilution of biotinylated goat anti-human IgG (Vector Labs. p/n. BA-3000) in PBST. […]

B1: Exemplified anti-Tau mAb: anti-Tau antibody having both HCs of SEQ ID NO.2 and both LCs of SEQ ID NO.1 (antibody)
heavy: EVQLVQSGAEVKKPGESLKISCKGSGYTFSNYWIEWVRQMPGKGLEWMGEILPGSDSIKYEKNFKGQVTISADKSISTAYLQWSSLKASDTAMYYCARRGNYVDDWGQGTLVTVSSASTKGPSVFPLAPCSRSTSESTAALGCLVKDYFPEPVTVSWNSGALTSGVHTFPAVLQSSGLYSLSSVVTVPSSSLGTKTYTCNVDHKPSNTKVDKRV[left out - human IgG4 Fc with S228P F234A L235A (EU numbers)]
light: EIVLTQSPGTLSLSPGERATLSCRSSQSLVHSNQNTYLHWYQQKPGQAPRLLIYKVDNRFSGIPDRFSGSGSGTDFTLTISRLEPEDFAVYYCSQSTLVPLTFGGGTKVEIKRTVAAPSVFIFPPSDEQLKSGTASVVCLLNNFYPREAKVQWKVDNALQSGNSQESVTEQDSKDSTYSLSSTLTLSKADYEKHKVYACEVTHQGLSSPVTKSFNRGEC
modifications: HC of exemplified anti-Tau antibody; LC of exemplified anti-Tau antibody
Mean % PG-5 immunoreactivity ([1]; Left Hippocampus): 2.52 ± 0.49 SEM %
Mean % PG-5 immunoreactivity ([1]; Right Hippocampus): 0.63 ± 0.13 SEM %
greater reduction in tau aggregation compared to control IgG4 antibody ([1]; left hippocampus): 60.5%
greater reduction in tau aggregation compared to control IgG4 antibody ([1]; right hippocampus): 66.5%
koff [2]: Not detectable
kon [2]: Not detectable
koff (human tau aggregates): <1e-05 M⁻¹ s⁻¹
kon (human tau aggregates): 45900 M⁻¹ s⁻¹
Severity of aggregated tau detected, semi quantitative score [3]: −
Severity of aggregated tau detected, semi quantitative score ([4]; Alzheimer's disease brain section): +++
Severity of aggregated tau detected, semi quantitative score ([4]; Normal control (human) brain section): +
Severity of aggregated tau detected, semi quantitative score ([4]; Pick's disease brain section): +++
